About 5,300 (4.4%) of roughly 120,000 compounds were called active. The inconclusive results got no clear call from the source; some entries with a clear call stand among them for comparison. The call rests on the fitted dose curve; in most records, active means well fitted inhibition curve with a large enough effect; inconclusive means small, poorly fitted or top-dose-only effect; inactive means no such curve, though single readings can be large or run the other way. Where the call is inconclusive, the potency comes from a doubtful curve fit.
Test: qHTS Primary assay for Inhibitors of Plasmodium falciparum Dd2 growth in vitro; further: nearly all actives have a fitted effect of over 65% in size;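 on activity, negative = inhibition: plate controls were DMSO vehicle for no effect and reference drug for full effect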
Conditions: P. falciparum Dd2 growth, SYBR Green, 72 h; activity, negative = inhibition: at 28.9 µM (top of the series) unless noted; series mostly up to 28.9 µM
How it was run: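 Infected erythrocytes (Dd2, 0.3% parasitemia, 2.5% hematocrit final) are added to compound in RPMI-1640/Albumax II medium, grown 72 h at 37C in low oxygen, then lysed with saponin/Triton-X containing SYBR Green and read by fluorescence.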
Potency means the concentration at half of the fitted maximal effect; tags describe the fitted curve by direction and shape.

Question: With `COc1ccccc1N1CCN(S(=O)(=O)c2ccc(F)c(C(=O)Nc3ccc(Cl)cc3C(F)(F)F)c2)CC1` as the compound, how does the Potency read?
Answer: The Potency was inconclusive: 11.2 µM [inhibitor, single point].

Question: With `COc1ccc(C)cc1NC(=O)COc1ccc(-c2nnc3n2CCCC3)cc1` as the compound, how does the Potency read?
Answer: Its Potency is inconclusive: 7.94 µM [inhibitor, partial curve, poor fit].

Question: For `O=C1Nc2cnccc2C2(CCN(C(=O)OCc3ccccc3)C2)O1` (centres undefined), which “outcome” value is on record?
Answer: The value was “inactive”.

Question: For `CCc1ccccc1-n1cnc2cc(C(=O)NC3CCCCCC3)ccc21`, which Potency is on record?
Answer: The Potency was inconclusive: 20 µM [inhibitor, single point].

Question: Which “activity, negative = inhibition” value does the source give for `Cc1ccccc1S(=O)(=O)N1CCCC(CCC(=O)NC2CC2)C1` (centres undefined) here?
Answer: Its value is inactive: -10%.

Question: For `CN(C)CCOc1ccccc1-c1ccc(C#N)cc1`, which Potency is on record?
Answer: Its Potency is inconclusive: 1.26 µM [inhibitor, full curve].

Question: For `CCOc1ccc(C(=O)Oc2c(Sc3ccccc3)c(C)nn2C(C)(C)C)cc1OCC`, which Potency is on record?
Answer: Its Potency is inconclusive: 17.8 µM [inhibitor, single point].

Question: For `CCOc1ccc(-c2nc(C3CC(=O)N(c4ccc(OC)cc4)C3)no2)cc1` (centres undefined), which “activity, negative = inhibition” value is on record?
Answer: Its value is inactive: -25.8%.

Question: With `CCOc1ccc(C2c3c(oc4ccc(C)cc4c3=O)C(=O)N2CCCN(C)C)cc1OC` (centres undefined) as the compound, how does the “activity, negative = inhibition” value read?
Answer: The value was inactive: -17.9%.

Question: Which Potency does the source give for `CC(C)N1C(=O)C2(CCCC2)C1C(=O)Nc1cccc(OC(F)(F)F)c1` (centres undefined) here?
Answer: The Potency was inconclusive: 2.24 µM [inhibitor, partial curve].

Question: Which “activity, negative = inhibition” value does the source give for `CC(=O)N1CCCc2cc(S(=O)(=O)N3CCCC(C(=O)NC(C)C)C3)ccc21` (centres undefined) here?
Answer: The value was inactive: -3.18%.

Question: For `Cc1[nH]c2ccccc2c1C1(O)C(=O)N(Cc2ccccc2)c2ccc(Cl)cc21` (centres undefined), which Potency is on record?
Answer: Its Potency is active: 10 µM.

Question: For `CN(C)c1ccc(-c2nnc([C@H]3CCN(CC4CC4)C3)o2)cc1`, which Potency is on record?
Answer: Its Potency is inconclusive: 31.6 µM [inhibitor, single point].

Question: With `CCC(=O)N1CCCN(Cc2ccncc2)C(c2ccccc2)CC(=O)NCC1` (centres undefined) as the compound, how does the Potency read?
Answer: The Potency was inconclusive: 8.91 µM [inhibitor, single point].

Question: Which Potency does the source give for `CSc1ccc(-c2nc3cccc(C)n3c2Nc2ccc3c(c2)OCO3)cc1` here?
Answer: Its Potency is inconclusive: 12.6 µM [inhibitor, single point].

Question: With `COc1ccc(-c2nnc(SC(C)C(=O)O)o2)cc1` (centres undefined) as the compound, how does the “activity, negative = inhibition” value read?
Answer: The value was inactive: 30.9%.

Question: With `O=C(c1ccn[nH]1)N1CCC(c2nc(CCOCC3CCCC3)no2)C1` (centres undefined) as the compound, how does the “outcome” value read?
Answer: Its value is “inactive”.

Question: Which “outcome” value does the source give for `Cc1noc(C)c1-c1cc2c(cc(C)n2C)c(-c2cccc([S+](C)(=O)[O-])c2)n1` here?
Answer: Its value is “inactive [at 44.1 µM]”.

Question: For `COc1ccc(Cl)cc1NC(=O)Cn1c(=O)n(-c2ccc(C)cc2)c(=O)c2ccc(C(=O)NCc3ccccc3Cl)cc21`, which Potency is on record?
Answer: The Potency was inconclusive: 0.891 µM [inhibitor, partial curve, poor fit].

Question: With `CC(C)(C)NC(=O)N1[C@H]2CC[C@@H]1c1cnc(-c3ccccc3)nc1C2` as the compound, how does the Potency read?
Answer: Its Potency is inconclusive: 10 µM [inhibitor, single point].

Question: With `O=c1ncn(Cc2ccccc2)c2ccc(NCCOc3ccccc3)nc12` as the compound, how does the “outcome” value read?
Answer: Its value is “inactive [at 44.1 µM]”.

Question: For `CN(C)C[C@@H]1CN(Cc2ccccc2)C[C@H]1NC(=O)CCn1cccn1`, which “activity, negative = inhibition” value is on record?
Answer: The value was inactive: 30.7%.

Question: For `O=C1NCc2ccccc2CC12CCCN2Cc1ccsc1` (centres undefined), which Potency is on record?
Answer: Its Potency is inconclusive: 10 µM [inhibitor, single point].

Question: Which Potency does the source give for `O=C(N[C@@H]1CN(c2ncccn2)C[C@H]1CO)c1ccc2c(c1)OCO2` here?
Answer: The Potency was inconclusive: 5.01 µM [inhibitor, full curve, poor fit].

Question: With `CCN(CC)C(=O)C1=C(C)Nc2nc3ccccc3n2C1c1ccccc1F` (centres undefined) as the compound, how does the Potency read?
Answer: Its Potency is inconclusive: 10 µM [inhibitor, single point].

Question: Which “activity, negative = inhibition” value does the source give for `O=C(CCc1ccccc1)N1CC[C@H]2COC(=O)N2c2cc(F)ccc2C1` here?
Answer: Its value is inactive: -12.2% [at 44.1 µM].

Question: For `CC(C)C1=NOC2(CCN(Cc3ccc(C#N)cc3)C2)C1` (centres undefined), which Potency is on record?
Answer: The Potency was inconclusive: 28.2 µM [inhibitor, single point].

Question: For `CCOC(=O)c1ccc(Nc2c(-c3ccc(OC)cc3)nc3nc[nH]n23)cc1`, which Potency is on record?
Answer: The Potency was inconclusive: 8.91 µM [inhibitor, single point].

Question: With `Cc1ccccc1Cn1c(=O)n(Cc2ccco2)c(=O)c2sc3ccccc3c21` as the compound, how does the Potency read?
Answer: The Potency was inconclusive: 17.8 µM [inhibitor, single point].

Question: For `O=C(NCCOc1ccccc1)c1nc2c(o1)CCN(Cc1ccc3[nH]ccc3c1)CC2`, which Potency is on record?
Answer: The Potency was inconclusive: 31.6 µM [inhibitor, partial curve, poor fit].

Question: With `CS(=O)(=O)N1C[C@@H](COc2ccncc2)[C@H](c2ccccn2)C1` as the compound, how does the “activity, negative = inhibition” value read?
Answer: Its value is inactive: 9.07%.

Question: With `CN1CCNc2cc(-c3ccc(N4CCOCC4)cc3)ncc2C1` as the compound, how does the Potency read?
Answer: Its Potency is inconclusive: 31.6 µM [inhibitor, single point].

Question: With `Fc1ccc(OCc2nnc([C@H]3CCN(Cc4cccnc4)C3)o2)cc1` as the compound, how does the Potency read?
Answer: Its Potency is inconclusive: 10 µM [inhibitor, partial curve].

Question: With `CC(C)c1ccccc1NC(=O)C(Cc1c[nH]c2ccccc12)NC(=O)OC(C)(C)C` (centres undefined) as the compound, how does the Potency read?
Answer: Its Potency is inconclusive: 1.58 µM [inhibitor, full curve].

Question: Which “activity, negative = inhibition” value does the source give for `CCOC(=O)C1CCCN(C(=O)Cn2ncc3c(C)n(Cc4ccc(Cl)cc4)c(C)c3c2=O)C1` (centres undefined) here?
Answer: The value was inactive: -17.7%.

Question: For `COCCOc1ccnc(-c2noc([C@@H]3CCCN3Cc3ccc(Cl)cc3)n2)c1`, which Potency is on record?
Answer: Its Potency is active: 3.98 µM.

Question: For `CSc1cccc(NC(=O)Cn2c(-c3cnccn3)nc(C)c(C)c2=O)c1`, which “activity, negative = inhibition” value is on record?
Answer: The value was inactive: -23.3%.

Question: Which “activity, negative = inhibition” value does the source give for `Cc1nc(C)c(C(=O)NC2CCc3nn(CC4CC4)c(=O)n3CC2)s1` (centres undefined) here?
Answer: The value was inactive: 6.88%.

Question: For `CCC(=O)N1Cc2ccccc2CC2(CCN(Cc3cccnc3)C2)C1` (centres undefined), which Potency is on record?
Answer: The Potency was inconclusive: 7.94 µM [inhibitor, partial curve, poor fit].

Question: Which Potency does the source give for `Cc1cc(=O)oc2cc(CN(C)CC(C)N3CCOCC3)ccc12` (centres undefined) here?
Answer: The Potency was inconclusive: 10 µM [inhibitor, single point].

Question: With `Cc1ccc(C(=O)NC2CCN(c3cc(-c4ccccc4)[nH]n3)C2)cc1` (centres undefined) as the compound, how does the Potency read?
Answer: Its Potency is inconclusive: 15.8 µM [inhibitor, single point].

Question: Which Potency does the source give for `CCOc1ccc(CNC(=O)CCCn2c(=O)c3cccn3c3cccnc32)cc1` here?
Answer: Its Potency is inconclusive: 14.1 µM [inhibitor, single point].

Question: Which Potency does the source give for `c1ccc(-c2cnc(Nc3ccc4c(c3)OCCO4)c3c2CCO3)cc1` here?
Answer: Its Potency is inconclusive: 28.2 µM [inhibitor, single point].

Question: Which “activity, negative = inhibition” value does the source give for `CN1C[C@H](O)C[C@H]1c1nnc2n1CCN(Cc1ccc(F)cc1F)C2` here?
Answer: The value was inactive: -0.446%.
